# Laboratory results from PubChem BioAssay (NCATS).
# Where “and” joins values, the source holds several entries; their conditions need not be identical. Equal entries are not always repeated. The shares of active, inactive and inconclusive entries below differ from those in the screen. Potencies beside an inconclusive call are fits to weak or partial responses and may not hold up. Calls of active or inactive are those of the source. The call rests on the fitted dose curve; in most records, active means well fitted curve in the direction sought with a large enough effect; inconclusive means small, poorly fitted or top-dose-only effect, or another doubt; inactive means no such curve, though single readings can be large; an effect the other way counts as inactive or inconclusive. Numbered stars: 1 amine (or outer) side, 2 acyl side, 3 side chain; on linkers, the order of the positions; unused ones are H or OH. Bridge positions count the residues as written; N and C are the ends. Square brackets hold non-standard residues; d marks the D form. Peptide text beside a SMILES is read from it. * marks the point of attachment. ξ: configuration not given here. X10 = NC1=NCCC(C(N[*:1])C(=O)[*:2])N1; ΔAla(3-NHCONH2) = NC(=O)NC=C(N)C(=O)O; ξβ3hOrn = NCCCC(N)CC(=O)*; Dap = NC[CH](N)C(=O)O
# Tests used:
# [1] = qHTS of pediatric cancer cell lines to identify multiple opportunities for drug repurposing: Primary screen for NB-EBc1 cells (AID 1347095); settings: NB-EBc1 neuroblastoma viability, CellTiter-Glo luminescence, 48 h; series mostly up to 46 µM;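 on activity change, negative = cytotoxic: plate controls were DMSO neutral control for no effect and bortezomib for full effect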
# In short: (§1)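 Viability was measured as metabolically active cells after 48 hours of treatment, read by CellTiter-Glo luminescence. Compounds were tested at multiple final concentrations, giving concentration-response curves.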
# [2] = qHTS of pediatric cancer cell lines to identify multiple opportunities for drug repurposing: Primary screen for SK-N-SH cells (AID 1347098); settings: SK-N-SH viability, CellTiter-Glo luminescence, 48 h; series mostly up to 57 µM; further: nearly all actives have a fitted effect of over 65% in size;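 on activity change, negative = cytotoxic: DMSO served as neutral control and bortezomib at 2.3 µM as positive control; on the % scale 0 is the no-effect control and ±100 the full control effect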
# In short: (§2)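 Cells (500-1,000/well) rested 5 h, then received compounds for 48 h; metabolically active cells were measured by CellTiter-Glo luminescence. Final concentrations spanned up to 46 µM (MIPE, 11-point) or 0.59 nM-46 µM (NPC, 8-point) in primary screens, 11-point in follow-ups.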
# [3] = qHTS of pediatric cancer cell lines to identify multiple opportunities for drug repurposing: Primary screen for NB1643 cells (AID 1347099); settings: NB1643 neuroblastoma viability, CellTiter-Glo luminescence, 48 h; series mostly up to 46 µM; further: nearly all actives have a fitted effect of over 50% in size;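 on activity change, negative = cytotoxic: plate controls were DMSO neutral control for no effect and bortezomib positive control for full effect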
# In short: as §1
# [4] = qHTS of pediatric cancer cell lines to identify multiple opportunities for drug repurposing: Primary screen for LAN-5 cells (AID 1347100); settings: LAN-5 neuroblastoma viability, CellTiter-Glo luminescence, 48 h; activity change, negative = cytotoxic: at 46 µM (top of the series);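 on activity change, negative = cytotoxic: plate controls were DMSO neutral control for no effect and bortezomib positive control for full effect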
# In short: (§3)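 Viability after 48 h compound treatment at 37C, 500-1,000 cells/well, read as ATP luminescence with CellTiter-Glo. Primary screens used 11-point (MIPE, 0.78 nM-46 µM) or 8-point (NPC, 0.59 nM-46 µM) final concentrations; follow-up screens used 11-point dilutions.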
# [5] = qHTS of pediatric cancer cell lines to identify multiple opportunities for drug repurposing: Primary screen for BT-12 cells (AID 1347101); settings: BT-12 viability, CellTiter-Glo luminescence, 48 h; series mostly up to 57.3 µM; further: nearly all actives have a fitted effect of over 25% in size;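 on activity change, negative = cytotoxic: plate controls were DMSO for no effect and bortezomib positive control for full effect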
# In short: as §2
# [6] = qHTS of pediatric cancer cell lines to identify multiple opportunities for drug repurposing: Primary screen for BT-37 cells (AID 1347094); settings: BT-37 viability, CellTiter-Glo luminescence, 48 h; series mostly up to 57.3 µM;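 on activity change, negative = cytotoxic: plate controls were DMSO for no effect and bortezomib for full effect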
# In short: as §1
# [7] = qHTS of pediatric cancer cell lines to identify multiple opportunities for drug repurposing: Primary screen for Saos-2 cells (AID 1347097); settings: Saos-2 viability, CellTiter-Glo ATP luminescence, 48 h; activity change, negative = cytotoxic: at 46 µM (top of the series); further: nearly all actives have a fitted effect of over 40% in size; on activity change, negative = cytotoxic: on the % scale 0 is the no-effect control and ±100 the full control effect
# In short: as §1
# [8] = qHTS of pediatric cancer cell lines to identify multiple opportunities for drug repurposing: Primary screen for U-2 OS cells (AID 1347096); settings: U-2 OS viability, CellTiter-Glo luminescence, 48 h; series mostly up to 46 µM; further: nearly all actives have a fitted effect of over 50% in size;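 on activity change, negative = cytotoxic: plate controls were DMSO wells for no effect and bortezomib positive control wells for full effect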
# In short: as §3
# Potency means the concentration at half of the fitted maximal effect; tags describe the fitted curve by direction and shape.
compound,measurement,setting,value
COc1cc(Nc2ncc(F)c(Nc3ccc4c(n3)NC(=O)C(C)(C)O4)n2)cc(OC)c1OC,Potency,[1],active: 4.18 µM
same,Potency,[2],inactive
same,Potency,[3],"inconclusive: 1.18 µM [cytotoxic, full curve]"
same,Potency,[4],"inconclusive: 1.48 µM [cytotoxic, full curve]"
same,Potency,[5],inactive
Cc1cc(OCCCc2c(C(=O)O)n(Cc3cccnc3)c3c(-c4c(COc5ccc(N6CCN([S+](C)(=O)[O-])CC6)cc5)nn(C)c4C)cccc23)cc(C)c1Cl,Potency,[6],"inconclusive: 27.3 µM [cytotoxic, single point]"
same,Potency,[7],active: 18.7 µM
same,Potency,[2],"inconclusive: 24.1 µM [cytotoxic, single point]"
same,Potency,[4],"inconclusive: 20.9 µM [cytotoxic, partial curve]"
same,Potency,[5],"inconclusive: 34.3 µM [cytotoxic, partial curve, poor fit]"
O=c1cc(-c2ccccc2)oc2cc(O)cc(O)c12,Potency,[6],"inconclusive: 19.3 µM [cytotoxic, partial curve]"
same,Potency,[2],"inconclusive: 9.61 µM [cytotoxic, partial curve, poor fit]"
same,Potency,[4],"inconclusive: 37.2 µM [cytotoxic, single point]"
same,Potency,[5],inactive
C=Cc1c(C)c2cc3[nH]c(cc4nc(cc5nc(cc1[nH]2)C(C)=C5CCC(=O)O)C(CCC(=O)O)=C4C)c(C)c3C=C,Potency,[6],inactive
same,Potency,[2],inactive
CC(C)(C)NC[C@H](O)COc1nsnc1N1CCOCC1,Potency,[6],inactive
same,Potency,[4],inactive
same,Potency,[5],inactive
CCCCCCCC(=O)[O-].CCCCCCCC(=O)[O-].[Zn+2],Potency,[1],inactive
same,Potency,[2],inactive
same,Potency,[4],inactive
CC[C@]1(O)C[C@H]2CN(CCc3c([nH]c4ccccc34)[C@@](C(=O)OC)(c3cc4c(cc3OC)N(C=O)[C@H]3[C@@](O)(C(=O)OC)[C@H](OC(C)=O)[C@]5(CC)C=CCN6CC[C@]43[C@@H]65)C2)C1,Potency,[1],active: 9.3 nM and active: 237 nM
same,Potency,[8],"inconclusive: 935 nM [cytotoxic, full curve, poor fit] and inconclusive: 422 nM [cytotoxic, full curve, poor fit]"
same,Potency,[7],"active: 23.5 nM and inconclusive: 15 nM [cytotoxic, full curve]"
same,Potency,[2],"inconclusive: 2.2 nM [cytotoxic, full curve, poor fit] and inconclusive: 1.94 µM [cytotoxic, partial curve, poor fit]"
same,Potency,[3],"inconclusive: 33.2 nM [cytotoxic, full curve] and inconclusive: 53.1 nM [cytotoxic, full curve]"
same,Potency,[4],active: 8.3 nM and active: 59.6 nM
N[C@H](CSC(c1ccccc1)(c1ccccc1)c1ccccc1)C(=O)O,Potency,[6],"inconclusive: 21.7 µM [cytotoxic, partial curve]"
same,Potency,[2],inactive
same,Potency,[4],"inconclusive: 23.5 µM [cytotoxic, single point]"
OC[C@H]1O[C@H](O[C@]2(CCl)O[C@H](CCl)[C@@H](O)[C@@H]2O)[C@H](O)[C@@H](O)[C@H]1Cl,Potency,[6],inactive
same,Potency,[5],inactive
Cc1ccc(C)c(OCCCC(C)(C)C(=O)O)c1,Potency,[6],inactive
same,Potency,[2],"inconclusive: 38.3 µM [cytotoxic, single point]"
CCCn1cnc2c1c(=O)n(CCCCC(C)=O)c(=O)n2C,Potency,[8],inactive
O=C(CCCl)NCc1ccccc1,Potency,[7],inactive
Cc1ccccc1C(C(=O)NC1CCCCC1)N(C(=O)Cn1ccnc1C)c1cccc(F)c1 (stereo not drawn),Potency,[7],"inconclusive: 16.6 µM [cytotoxic, partial curve]"
CCC(C(=O)O)c1ccc(N2Cc3ccccc3C2=O)cc1 (stereo not drawn),Potency,[7],inactive
Cc1[nH]c(C=C2C(=O)Nc3ccc(S(=O)(=O)Cc4c(Cl)cccc4Cl)cc32)c(C)c1C(=O)N1CCC[C@H]1CN1CCCC1,Potency,[8],"inconclusive: 23.5 µM [cytotoxic, single point]"
same,Potency,[3],"inconclusive: 23.5 µM [cytotoxic, single point]"
same,Potency,[5],"inconclusive: 24.3 µM [cytotoxic, partial curve]"
Cc1cc(C)c(/C=C2\C(=O)Nc3ccccc32)[nH]1,Potency,[7],"inconclusive: 13.3 µM [cytotoxic, single point]"
C[C@H](NC(=O)C(=O)Nc1ccccc1C(C)(C)C)C(=O)N[C@@H](CC(=O)O)C(=O)COc1c(F)c(F)cc(F)c1F,Potency,[8],"inconclusive: 18.7 µM [cytotoxic, single point]"
same,Potency,[7],active: 18.7 µM
same,Potency,[4],"inconclusive: 29.6 µM [cytotoxic, single point]"
same,Potency,[5],"inconclusive: 27.3 µM [cytotoxic, single point]"
CC(C(=O)O)c1cccc(C(=O)c2ccccc2)c1 (stereo not drawn),Potency,[7],"inconclusive: 26.4 µM [cytotoxic, partial curve]"
same,Potency,[2],"inconclusive: 30.4 µM [cytotoxic, single point]"
same,Potency,[5],"inconclusive: 24.3 µM [cytotoxic, single point]"
CC(=O)O[C@]1(C(C)=O)CC[C@H]2[C@@H]3C=C(C)C4=CC(=O)CC[C@]4(C)[C@@H]3CC[C@@]21C,Potency,[8],"inconclusive: 11.8 µM [cytotoxic, partial curve]"
same,Potency,[2],active: 3.04 µM
COc1ccc(-c2coc3cc(O)cc(O)c3c2=O)cc1,Potency,[7],"inconclusive: 16.6 µM [cytotoxic, partial curve]"
same,Potency,[3],"inconclusive: 18.7 µM [cytotoxic, partial curve]"
Nc1cc(-c2ccncc2)c[nH]c1=O,Potency,[1],"inconclusive: 33.5 µM [cytotoxic, partial curve, poor fit]"
same,Potency,[3],inactive
same,Potency,[4],"inconclusive: 33.5 µM [cytotoxic, single point]"
CC[C@]1(O)C[C@@H]2CN(CCc3c([nH]c4ccccc34)[C@@](C(=O)OC)(c3cc4c(cc3OC)N(C=O)[C@@H]3C45CCN4CC=C[C@](CC)([C@H]45)[C@@H](OC(C)=O)[C@]3(O)C(=O)OC)C2)C1 (stereo partly drawn),Potency,[1],"inconclusive: 23.5 µM [cytotoxic, partial curve]"
same,Potency,[5],"inconclusive: 6.85 µM [cytotoxic, partial curve]"
O=C(CCN1CCN2CCCC2C1)N1c2ccccc2Sc2ccc(Cl)cc21 (stereo not drawn),Potency,[8],inactive
same,Potency,[7],"inconclusive: 11.6 µM [cytotoxic, single point]"
C=C1C(=O)[C@@]23C(CC[C@@H]1[C@H]2O)[C@@]12CO[C@]3(O)[C@@H](O)[C@@H]1C(C)(C)CC[C@@H]2O (stereo partly drawn),Potency,[8],active: 14.8 µM
same,Potency,[7],active: 4.69 µM
same,Potency,[2],active: 15.2 µM
same,Potency,[5],active: 3.43 µM
NS(=O)(=O)c1cccc2c1C(=O)c1cccc(O)c1C2=O,Potency,[8],active: 0.59 µM
same,Potency,[7],active: 0.264 µM
same,Potency,[4],active: 1.05 µM
O=C1c2c(O)ccc(O)c2C(=O)c2c(NCCNCCO)ccc(NCCNCCO)c21,Potency,[8],active: 18.7 µM and active: 10.6 µM
same,Potency,[3],active: 469 nM and active: 668 nM
NCCCC(N)CC(=O)NCC1NC(=O)C(CO)NC(=O)C(N)CNC(=O)C(C2CCN=C(N)N2)NC(=O)C(=CNC(N)=O)NC1=O (stereo not drawn) (H-[Dap]S[Dap](ξβ3hOrn)[ΔAla(3-NHCONH2)][X10]; lactam 1-C; configuration not given here),"activity change, negative = cytotoxic",[7],inactive: 29.1% [at 0.597 µM]
same,"activity change, negative = cytotoxic",[3],inactive: 13.7% [at 0.597 µM]
CC(COc1ccccc1)NN (stereo not drawn),Potency,[7],"inconclusive: 18.8 µM [cytotoxic, partial curve, poor fit]"
Cc1ccc(C(=O)Nc2cccc(C(F)(F)F)c2)cc1Nc1nc(-c2cccnc2)nc2c1cnn2C,Potency,[8],inactive
same,Potency,[7],"inconclusive: 9.35 µM [cytotoxic, partial curve, poor fit]"
same,Potency,[3],active: 7.43 µM
same,Potency,[4],active: 13.2 µM
Cc1ccnc(NS(=O)(=O)c2ccc(N)cc2)n1,Potency,[8],inactive
same,Potency,[3],inactive
CC1=C(C(=O)O)N2C(=O)[C@@H](NC(=O)[C@H](N)C3=CCC=CC3)[C@H]2SC1,"activity change, negative = cytotoxic",[7],inconclusive: -33.8% [cytotoxic]
NC(CO)(CO)CCc1ccc(Sc2cccc(OCc3ccccc3)c2)cc1Cl,Potency,[8],"inconclusive: 37.2 µM [cytotoxic, single point]"
same,Potency,[2],active: 19.2 µM
same,Potency,[4],active: 4.18 µM
O=C1NC(=O)C(c2ccccc2[N+](=O)[O-])=C1Nc1ccc(O)c(Cl)c1,Potency,[8],inactive
same,Potency,[2],"inconclusive: 1.52 µM [cytotoxic, full curve]"
same,Potency,[3],"inconclusive: 1.32 µM [cytotoxic, full curve]"
NC(=O)c1cn(Cc2c(F)cccc2F)nn1,Potency,[7],inactive
same,Potency,[2],inactive
same,Potency,[5],inactive
CCC(CC)[C@H](NC(C)=O)[C@@H]1[C@H](O)[C@@H](C(=O)O)C[C@@H]1N=C(N)N,Potency,[8],inactive
same,Potency,[7],inactive
same,Potency,[4],inactive
Nc1ccc(C(=O)Oc2ccccc2)c(O)c1,Potency,[8],inactive
same,Potency,[7],"inconclusive: 26.6 µM [cytotoxic, single point]"
same,Potency,[2],"inconclusive: 38.6 µM [cytotoxic, single point]"
O=c1c(O)c(-c2ccc(O)c(O)c2)oc2cc(O)ccc12,Potency,[7],active: 16.6 µM
same,Potency,[2],active: 27.1 µM
same,Potency,[4],active: 16.6 µM
Nc1ccc(O)c(C(=O)O)c1,Potency,[7],inactive
same,Potency,[2],inactive
same,Potency,[5],inactive
Nc1nc(F)nc2c1ncn2[C@@H]1O[C@H](COP(=O)(O)O)[C@@H](O)[C@H]1O,Potency,[7],active: 0.743 µM
same,Potency,[2],"inconclusive: 42.9 µM [cytotoxic, single point]"
same,Potency,[4],"inconclusive: 11.8 µM [cytotoxic, partial curve]"
same,Potency,[5],"inconclusive: 30.6 µM [cytotoxic, single point]"
CN1CC(=O)N2C(Cc3c([nH]c4ccccc34)[C@H]2c2ccc3c(c2)OCO3)C1=O (stereo partly drawn),Potency,[7],"inconclusive: 18.7 µM [cytotoxic, partial curve, poor fit]"
same,Potency,[2],"inconclusive: 30.4 µM [cytotoxic, single point]"
same,Potency,[3],"inconclusive: 14.8 µM [cytotoxic, partial curve, poor fit]"
